Hit rate of the full screen: of about 150,000 compounds, about 540 (0.36%) showed an effect of 50% or more. This is one part of the list.

Broadly, the % Inhibition is the relative decrease from the control value, in per cent.

For the assay, the system named is Plasmodium falciparum. Kind of assay: Primary screen in NF54 nanoGlo assay, in single point, at 2uM, 72h; a lower Z score goes with more inhibition. The assay is classed as functional, Erythrocyte. The following applies: timepoint 72 hour.
On to `CC1=NN(c2ccccc2)C(=O)[C@H]1C(=O)c1ccc(S(=O)(=O)N2CCOCC2)cc1`, for which the “% Inhibition” value is 0% and the Z score worked out at 0.
On the same counts, the results for `[O-][S+]1CCN(CCOc2cc(Cl)cc(Cl)c2)CC1` are -2% and 0.29.
On the same counts, the results for `CC(=O)NCCOc1ccccc1OCCNC(C)=O` are 5% and -0.85.
On the same counts, the results for `CC1(C(N)=O)CCN(C(=O)c2cccc(-c3ccc4ncccc4c3)c2)CC1` are -5% and 1.04.
For the molecule `C[C@H](NS(=O)(=O)N1CCCCC1)c1nc(C2CC2)no1`, the “% Inhibition” value is recorded as -15% and the Z score was 2.79.
On the same counts, the results for `Cc1ccc(O[C@H]2CCN(C(=O)c3c[nH]c4ccccc34)C2)nn1` are -7% and 0.8.
Taken in the same sequence, the figures for `CN(C)C(=O)[C@]12CCS(=O)(=O)N(C)[C@@H]1CCN(Cc1ccc(OC(F)(F)F)cc1)C2` were 1% and -0.15.
In the case of `CC1COC(c2cccc(Cl)c2)CN1Cc1cncn1C` (stereo unspecified), the “% Inhibition” value was -3% and the Z score was determined as 0.38.
Take `C[C@H](C#N)CN(C)C[C@]1(O)CC[C@@H](N(C)C(=O)OC(C)(C)C)CC1`: the “% Inhibition” value is on record as -16% and the Z score is reported as 3.14.
On the same counts, the results for `Cc1cc(O[C@H]2CCCN(C(=O)c3cccc(-n4cnnn4)c3)C2)nc(C)n1` are 9% and -1.24.
On the same counts, the results for `CC(C)Cc1cc(C(=O)N2C[C@H](C(C)C)[C@@H](N)C2)on1` are -4% and 0.69.
Taken in the same sequence, the figures for `CCc1ccc(-c2cc(C)cnc2-n2cnnc2)cc1` were -11% and 1.09.
For the molecule `CCn1c2c(c(=O)n3ncc(C(=O)NCCOC)c13)CN(Cc1ccccc1)CC2`, the “% Inhibition” value was -4% and the Z score turned out to be 0.55.
With `CCOC(=O)N1CCC(N2CCC3(CC2)C[C@@H]3C(=O)Nc2ccccc2OC)CC1`, the “% Inhibition” value is reported as -10% and the Z score is given as 1.46.
For `O=C(COc1ccccc1-n1cnnc1)Nc1nnc[nH]1`, the “% Inhibition” value came to 33% and the Z score was -3.75.
For `CN(Cc1ccsc1)C(=O)C1CC(=O)N(C)C1c1cccnc1` (stereo unspecified), the “% Inhibition” value is 3% and the Z score is recorded as -0.29.
As to `CCc1nc(CC(=O)N2CCN(C(C)=O)C3(CCOCC3)CC2)cs1`, the “% Inhibition” value was 3% and the Z score is -0.48.
For `CCS(=O)(=O)N1CCCc2cc(C(=O)N3CCCCCC3)ccc21`, the “% Inhibition” value is listed as 9% and the Z score was -1.02.
Regarding `N#CCCn1nc(-c2ccc(Br)cc2)cc1-n1c(C(F)(F)F)nc2ccccc21`, the “% Inhibition” value is reported as -13% and the Z score came out at 1.64.
Turning to `O=C(NCc1ccccc1)N1CCN(Cc2ccco2)[C@@H]2CS(=O)(=O)C[C@@H]21`, the “% Inhibition” value is -4% and the Z score was 0.73.
Taken in the same sequence, the figures for `Cc1ncsc1CN(C)[C@@H](C(=O)O)c1ccsc1` were 3% and -0.57.
Regarding `O=C(Nc1ccc(N2C(=O)c3ccccc3C2=O)cc1Cl)c1ccc(N2C(=O)c3ccccc3C2=O)cc1`, the “% Inhibition” value is given as -38% and the Z score is recorded as 4.44.
`CCc1nc2c(c(=O)[nH]1)C[C@H]1CC[C@@H](C2)N1C(=O)Nc1cccc(C(F)(F)F)c1`: the “% Inhibition” value is reported as -22% and the Z score is 3.07.
As for `CCS(=O)(=O)N1CCC[C@H](C(=O)N2CCCc3ccccc32)C1`, the “% Inhibition” value is recorded as -13% and the Z score came to 1.83.
Taken in the same sequence, the figures for `Cc1cc(F)ccc1S(=O)(=O)N1CC[C@H](c2cnccn2)C1` were -11% and 2.
In the case of `OB(O)[C@H]1CCN(Cc2cc3n(n2)CCC3)C1`, the “% Inhibition” value was found to be 0% and the Z score was found to be 0.03.
On the same counts, the results for `CC1(C)OCC2(CO1)CN(C(=O)NCc1ccccc1)C2` are -4% and 0.65.
With `Cc1cccc(N2C(=O)C3CC3C2=O)c1` (stereo unspecified), the “% Inhibition” value was 38% and the Z score was -4.88.
For `O=C(c1cc(-c2ccccc2)on1)N1C2C=CCC1CC2` (stereo unspecified), the “% Inhibition” value is -13% and the Z score was found to be 2.21.
On the same counts, the results for `CN(C)[C@H]1CCCN(CCCc2ccco2)CC1` are -2% and 0.26.
Consider `CCC[C@H]1CN(Cc2cnc(COC)nc2)C[C@@H]1N(C)C`, for which the “% Inhibition” value is -8% and the Z score turned out to be 1.05.
With `O=C(c1ccc(Cn2cncn2)cc1)N1C[C@@H](C2CC2)C[C@H]1C1CC1`, the “% Inhibition” value was found to be 5% and the Z score is -0.72.
Taken in the same sequence, the figures for `C[C@H]1CN(S(=O)(=O)N2CCc3ccccc3C2)CCN1S(=O)(=O)N1CCc2ccccc2C1` were -1% and 0.11.
Take `CC(C)CCC(=O)NCCn1ccccc1=O`: the “% Inhibition” value is reported as -9% and the Z score was 1.78.
On to `Cc1ccc(C)c(S(=O)(=O)Nc2ccc(N3CCC[C@H](CN4CCCC4)C3)c(C(=O)O)c2)c1`, for which the “% Inhibition” value was determined as 3% and the Z score is reported as -0.33.
With `C=CCNC(=O)N1CCc2nc(N3CCCCC3)nc(N3CCCCC3)c2C1`, the “% Inhibition” value is listed as 2% and the Z score was -0.28.
Consider `CCc1nc(CN2CC[C@]3(O)CCN(C(=O)N4CCCC4)C[C@@H]3C2)cs1`, for which the “% Inhibition” value is reported as -2% and the Z score was found to be 0.34.
On the same counts, the results for `Cc1cccc(C(=O)Nc2cc(S(=O)(=O)N3CCOCC3)ccc2N2CCCC2)c1` are -2% and 0.32.
Taken in the same sequence, the figures for `Cc1cnc(CCN(C)Cc2nncn2C)s1` were -10% and 1.75.
On the same counts, the results for `COc1ccc(-c2cc(NCCO)nc(N)n2)c(-n2cccn2)c1` are 1% and -0.18.
`CCOc1ccccc1C(=O)NCN1CCN(c2ccc(OC)cc2)CC1`: the “% Inhibition” value is listed as 3% and the Z score is -0.33.
Turning to `COc1ccccc1C1(CN=C(N)N2CCOCC2)CCC1`, the “% Inhibition” value was -2% and the Z score came to 0.18.
With `O=C(N[C@@H]1CN(C(=O)CCCc2ccccc2)C[C@H]1CO)c1ccccc1`, the “% Inhibition” value was 2% and the Z score was -0.27.
As for `CN(C)CCC(=O)c1cccc(Br)c1`, the “% Inhibition” value is listed as -3% and the Z score is given as 0.35.
`CN(C[C@@H]1CCCO1)C(=O)CCn1ccnn1`: the “% Inhibition” value was -6% and the Z score was determined as 1.11.
Regarding `CC(=O)Nc1ccc2nc(N3CCC(C(=O)NCCCc4ccccc4)CC3)cc(C)c2c1`, the “% Inhibition” value was -5% and the Z score is 0.71.
On the same counts, the results for `Cc1cc(C(=O)N2CCC[C@@]3(CNC(=O)O3)C2)cc(=O)[nH]1` are -9% and 0.92.
On the same counts, the results for `O=C(c1ccco1)n1nc(NCc2cccc3ccccc23)nc1NCc1cccc2ccccc12` are -6% and 0.83.
On to `Cc1nnnn1C[C@@H](O)CC1CCCC1`, for which the “% Inhibition” value is reported as -12% and the Z score is reported as 1.71.
On the same counts, the results for `COC(=O)CC(NC(C)=O)C(=O)N1CCCC1C(F)(F)F` (stereo unspecified) are -2% and 0.27.
On the same counts, the results for `COc1ccccc1N1CCN(Cc2cc(=O)[nH]c(C(C)C)n2)CC1` are -18% and 1.61.
Taken in the same sequence, the figures for `O=C(CCC(=O)NCc1cccs1)NCc1ccc2c(c1)OCO2` were 31% and -3.97.
Regarding `OCC1(CNc2cc3c(nn2)-c2ccccc2CCC3)CCOCC1`, the “% Inhibition” value is listed as -1% and the Z score was 0.09.
Consider `Cc1c(-c2ccc(F)cc2)nn(C2CCCC2)c1-c1ccc(F)cc1`, for which the “% Inhibition” value amounted to 25% and the Z score is -2.88.
Taken in the same sequence, the figures for `Brc1ccc(OCCN2CCC[C@H]2c2nnc3ccccn23)cc1` were 2% and -0.29.
Regarding `CC(C)C1OCCC1CNC(=O)c1ccoc1` (stereo unspecified), the “% Inhibition” value is on record as -6% and the Z score is 0.75.
On the same counts, the results for `CCNC(=O)C1Cc2cc(C(F)(F)F)ccc2N2CCN(CC(=O)N3CCOCC3)CC12` (stereo unspecified) are -2% and 0.35.
Turning to `O=S(=O)(NCCc1cnccn1)c1c(F)c(F)cc(F)c1F`, the “% Inhibition” value is listed as -10% and the Z score is recorded as 2.06.
`CC(C)c1nsc(N2CCN(Cc3ccccc3)CC2)n1`: the “% Inhibition” value is listed as 14% and the Z score was -1.57.
Turning to `O=C(CCc1cn[nH]c1)N1CC[C@@]2(CCCN(CCC3CCCCC3)C2)C1`, the “% Inhibition” value is -4% and the Z score is 0.36.
Taken in the same sequence, the figures for `CN(CC1CCC1)C(=O)[C@@H]1CCCN1C(=O)C1CCCC1` were -8% and 1.17.
As to `O=C(NCCCN1Cc2ccccc2C1)c1cnc(-c2ccccn2)nc1O`, the “% Inhibition” value was -12% and the Z score was 1.65.
On the same counts, the results for `CCn1cc(S(=O)(=O)N2CCCN(C(=O)C(C)C)CC2)cn1` are -14% and 1.8.
On the same counts, the results for `COc1ccc(CNC(=O)N2CCOC3CCCC32)cc1OC` (stereo unspecified) are -12% and 1.81.
Turning to `O=C(N[C@@H]1[C@@H]2CCO[C@@H]2[C@H]1N1CCCC1)c1cc2c(s1)CCCCC2`, the “% Inhibition” value was -10% and the Z score is on record as 1.32.
On the same counts, the results for `CCCNC(=O)c1cn(CCC)c2nc(C)ccc2c1=O` are -3% and 0.37.
Taken in the same sequence, the figures for `COc1ccc(CN2C(=O)[C@](NC(=O)C3CCCCC3)(C(F)(F)F)N=C2c2ccccc2)cc1` were -9% and 1.02.
Taken in the same sequence, the figures for `CCN(CC)C(=O)N1CCC[C@H](c2nccn2C(C)C)C1` were -15% and 1.87.
Turning to `O=C(c1nc2ccccc2cc1C1CC1)N1CCCn2nnnc21`, the “% Inhibition” value is reported as -8% and the Z score is given as 1.16.
Taken in the same sequence, the figures for `CCc1cc(C)nc(NC[C@]2(OC)CCS(=O)(=O)C2)n1` were -5% and 0.61.
As for `C#CCC1(C(=O)NCC(O)C(C)C)CCCN1C(=O)OC(C)(C)C` (stereo unspecified), the “% Inhibition” value was determined as 2% and the Z score is on record as -0.28.
On the same counts, the results for `CN(C)c1ccc(C#N)c(NS(=O)(=O)CCCC(F)(F)F)c1` are -9% and 1.02.
`O=C1[C@@H]2CCCCCN2C(=O)N1c1ccc2c(c1)OCO2`: the “% Inhibition” value is listed as -7% and the Z score was 1.08.
Consider `COc1cccc(C(=O)N2C[C@@H]3COCCN3C3(CN(Cc4c[nH]cn4)C3)C2)c1`, for which the “% Inhibition” value was -7% and the Z score stood at 1.13.
On the same counts, the results for `C[C@@H](C(=O)N1CCc2ccccc2C1)N(c1ccc2c(c1)OCCO2)S(C)(=O)=O` are -8% and 1.24.
Taken in the same sequence, the figures for `CCCNC(=O)[C@H](C)NC(=O)Nc1cccc(C)c1` were -4% and 0.53.
On to `O=C(c1ccc(Cn2ccnn2)cc1)N1CCn2cncc2C1`, for which the “% Inhibition” value worked out at 0% and the Z score is 0.09.
On the same counts, the results for `O=C1C[C@H](c2ccccc2Cl)c2cnn(Cc3ccc4c(c3)OCO4)c2N1` are 7% and -0.84.
With `COc1ccc(-c2noc(-c3sc(-c4nnc[nH]4)nc3C)n2)cc1`, the “% Inhibition” value was -3% and the Z score was 0.46.
Taken in the same sequence, the figures for `Nc1c(-c2nc3ccccc3[nH]2)c2nc3ccccc3nc2n1Cc1ccccc1F` were 78% and -5.76.
With `Cc1ccccc1C(=O)N1[C@H](C(=O)NCc2ccncc2)COC12CCN(C(=O)c1cccc(F)c1)CC2`, the “% Inhibition” value was found to be 5% and the Z score is listed as -0.85.
For the molecule `CC(=O)N[C@H]1[C@H](OCCC(C)C)O[C@H](COC(C)=O)[C@@H](OC(C)=O)[C@@H]1OC(C)=O`, the “% Inhibition” value worked out at 5% and the Z score is reported as -0.61.
With `CC1CCCCC1OCCN1CCN(CC(O)c2ccco2)CC1` (stereo unspecified), the “% Inhibition” value is on record as -15% and the Z score worked out at 1.25.

(Values after ChEMBL document CHEMBL4888484, “Replenishing the malaria drug discovery pipeline: Screening and hit evaluation of the MMV Hit Generation Library 1 (HGL1) against asexual blood stage Plasmodium falciparum ,using a nano luciferase reporter read-out” (2022).)
